The other results are listed elsewhere or left out.

From article PMC12136788 come the findings set out here.

The chains are these.
T1: UNK ZnF1-6 (called full-length) (human, UniProt Q9C0B0 30-357)
T1 sequence: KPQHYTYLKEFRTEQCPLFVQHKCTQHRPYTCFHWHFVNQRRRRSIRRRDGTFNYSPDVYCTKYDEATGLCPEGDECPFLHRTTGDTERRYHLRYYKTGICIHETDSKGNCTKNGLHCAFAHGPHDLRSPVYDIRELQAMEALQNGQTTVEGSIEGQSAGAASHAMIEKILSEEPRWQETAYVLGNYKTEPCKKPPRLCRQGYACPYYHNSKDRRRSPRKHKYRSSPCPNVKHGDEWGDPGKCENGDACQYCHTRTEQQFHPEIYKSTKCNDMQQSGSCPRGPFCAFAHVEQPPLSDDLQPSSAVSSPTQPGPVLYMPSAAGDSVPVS

B1: chr1:159061598:159062691:-|three_prime_utr|ENSG00000163568|control|control|control (ssRNA)
RNA: GGGAGUUCUACAGUCCGACGAUCUCAAUCAGAUUGUAAGUUACCUGAAAGCUGCAGUUCACAGGCUCCUCUCUCCACCAAAUUAGGAUAGAAUAAUUGCUGGAUAAACAAAUUCAGAAUAUCAACAGAUGAUCACAAUAAACACAACAGAGGAUUGAGCAUCA
B2: ENSG00000198589:be:win_1801|CDS|ENSG00000198589|bound_else_gene|NA|bound_elsewhere_windowed (ssRNA)
RNA: GGGAGUUCUACAGUCCGACGAUCACAGUCAACAUAUAUAACACCAUUCGGAGAGUUGGAACAGUGCUUCUCAUCAUGCACACGCUGAAGUACUACUACUGGGCAGUGAAUCCUCAGGAUCGAAGUGGUAUCACCCCAAAAGGACAACAGAGGAUUGAGCAUCA
B3: chr1:89935720:89935824:+|3pUTR|ENSG00000171492|msi1|FALSE|bound_elsewhere (ssRNA)
RNA: GGGAGUUCUACAGUCCGACGAUCUACAAGAUAAUGCAUUUUAGGAGUAGAUACAUCUUUUAAAAUAAAACAGAGAGGAUGCAUAGAAGGCUGAUAGAAGACAUAACUGAAUGUUCAAUGUUUGUAGGGUUUUAAGUCAUUCAUCAACAGAGGAUUGAGCAUCA
B4: chr4:138167974:138168075:-|3pUTR|ENSG00000151012|msi1|FALSE|unique (ssRNA)
RNA: GGGAGUUCUACAGUCCGACGAUCCACAAAAUCUGCAUUGUCCAUGUGAGUAAAGUAAAAUAAUUCCUGUUAUUUUUUUCUGUUAGAAAUAAGUAUGGAGGAUAUGUUUUUAAAAAUUUAUGAGUUAAUUGAAAUAUCCAUAUACAACAGAGGAUUGAGCAUCA
B5: chr17:5489330:5489445:+|CDS|ENSG00000167842|unk|FALSE|unique (ssRNA)
RNA: GGGAGUUCUACAGUCCGACGAUCACGUUGACUUUCUUUGAUGAGCUUCAUAAUGUUGGCAGAGAUCAUGGGACUAGUGAUUUUAGGGAGAGUUUAGUAUCCCUGGUUCAGAACUCCAGAAAACUACAGAACAUUAGAGACAAUCAACAGAGGAUUGAGCAUCA
B6: chr1:178442813:178442920:+|CDS|ENSG00000075391|unk|total|mutant (ssRNA)
RNA: GGGAGUUCUACAGUCCGACGAUCAAAGCAGACAAUAUUUUCUGGGGCGAACAUUUUGAAUUCUUCAGCCUUCCACCUCUUCACCGUAUCACAGUUCACAUUUACAAGGAUGUGGAAAAAAAGAAAAAAAAGGACAAGAAUAAUCAACAGAGGAUUGAGCAUCA
B7: chr12:50222030:50222167:-|CDS|ENSG00000050405|unk|total|mutant (ssRNA)
RNA: GGGAGUUCUACAGUCCGACGAUCAUCCAGGCAUGAAGCCGAAAAAUCAGAAAUCAGUGAAAACACAGAUGCUUCGGGCAAAACCGAGAAAUAUAAUGUUCCGCUGAACAGGCUUAAGAUGAUGUUUGAGAAAGGUGAACCAACCAACAGAGGAUUGAGCAUCA
B8: chr2:48379045:48379146:+|3pUTR|ENSG00000170802|unk|FALSE|unique (ssRNA)
RNA: GGGAGUUCUACAGUCCGACGAUCCCUUAUCCUCUUUUCUGAUGUAGCAUAAAAAUUGUCCCGGUUUGAGUUAUAACUGCCAGUAGAUGACCAGUCACAAGUGAACCACUUCUCAGUUGCCAAUCUUUGCUCAUAUUAAAAACACAACAGAGGAUUGAGCAUCA
B9: chr10:110135209:110135310:+|3pUTR|ENSG00000148700|msi1|total|mutant (ssRNA)
RNA: GGGAGUUCUACAGUCCGACGAUCCUCUCUAUUGGAAGAUUUUUUUAAUGUUCUACAUCAUUUAUGUUGUAUUACAAUGUAUGCCGAAACCGUAACCUGUGAACUAUGCUUUUCCAUAACUUUUUAAAAAUAUAUAUAUCUAAACAACAGAGGAUUGAGCAUCA
B10: chr8:42175261:42175472:-|3pUTR|ENSG00000104368|msi1|FALSE|unique (ssRNA)
RNA: GGGAGUUCUACAGUCCGACGAUCGUAUUCCUUUUGUGUACAGUGUGUAAAGUGUAAAUCCUUUUUCUUUAUAAACUUUAGAGUAGCAUGAGAGAAUUGUAUCAUUUGAACAACUAGGCUUCAGCAUAUUUAUAGCAAUCCAUGCAACAGAGGAUUGAGCAUCA
B11: chr19:45795712:45795987:-|three_prime_utr|ENSG00000104941|control|control|control (ssRNA)
RNA: GGGAGUUCUACAGUCCGACGAUCGAGGAGGAGGGCGAGGAGGAGGAGGAGGGCGAGGAGACAGAUGACUGAGGCCCACCCUCUAGCCACUUUCCCCAAGCAGGUAGAUAGCAAAUUUCCCCUUAGAGGUAGUUAGCAUGGAUUCAACAGAGGAUUGAGCAUCA
B12: chr6:42224930:42228669:-|three_prime_utr|ENSG00000124496|control|control|control (ssRNA)
RNA: GGGAGUUCUACAGUCCGACGAUCUGAUCAAGAUUCAGUCUUGCUUCAGGGUGACGCAGAACUAUAAAGCCCUGUGUGUCACUUAGAGACAGUGAAAACCCACGGCCUCCAUCUUCAUUAAUCAGGAAACCUGGACUGCCUGCUCAACAGAGGAUUGAGCAUCA
B13: chr1:45640296:45640398:-|CDS|ENSG00000159592|unk|FALSE|unique (ssRNA)
RNA: GGGAGUUCUACAGUCCGACGAUCCUCUCCACUCUUGUACUUCACAGAAAACCCGCCUAGUGCCAAGCAACCCUCCAAGAUGCUAGUUAUCAAAAAAGUUUCCAAAGAGGAUCCUGCUGCUGCCUUCUCUGCUGCAUUCACCUCCAACAGAGGAUUGAGCAUCA
B14: ENSG00000100994:stop:overlap|stop_codon|ENSG00000100994|stop_codon|NA|stop_codon (ssRNA)
RNA: GGGAGUUCUACAGUCCGACGAUCAGAUCUGGGGUGUGGAGCCCUCCGACCUGCAGAUCCCGCCCCCCAACAUCCCCCGGGACUAGGCACACCCUGCCUUGGCGGGACCAGCGGGCAUUUGUUUUCUUGCUGACUUUGCACCUCCAACAGAGGAUUGAGCAUCA
B15: chr7:80742902:80743013:-|3pUTR|ENSG00000075223|msi1_unk|FALSE|overlapping (ssRNA)
RNA: GGGAGUUCUACAGUCCGACGAUCUCAGAGUCACAGUUCCCUUUAUUUCACAUAAGCCCAAACUGAUAGACAGUAACGGUGUUUAGUUUUAUACUAUAUUUGUGCUAUUUAAUUCUUUCUAUUUUCACAAUUAUUAAAUUGUGUCAACAGAGGAUUGAGCAUCA
B16: chr12:109450965:109451066:-|3pUTR|ENSG00000110906|msi1|total|mutant (ssRNA)
RNA: GGGAGUUCUACAGUCCGACGAUCGCCCGGGCACAAUCCCCACUGCUUUGCCCGACGUGCUUUCUGCCAUGUGGCUUUGGGCCCCGAGCUUGUUGAUAAUUGCAGCUUGUGGCAGUGGAAAUAUGGCUGAAUGAGCGUCUAAAUCAACAGAGGAUUGAGCAUCA
B17: chr10:100209595:100209696:-|CDS|ENSG00000213341|unk|FALSE|unique (ssRNA)
RNA: GGGAGUUCUACAGUCCGACGAUCACUUCUUUCAGAGACAGGAAUUUCUCUGGAUCCUCGGAAACCAGCCUCUCAAUGUGUUCUAGAUGGAGUUGUAAGAAAAUUAAUUAUAAUAUCCCUAGAGUAUGUGAAAUCUAGAGGGAUCAACAGAGGAUUGAGCAUCA
B18: chr3:44647099:44647200:+|3pUTR|ENSG00000186448|msi1|FALSE|unique (ssRNA)
RNA: GGGAGUUCUACAGUCCGACGAUCAUUUGUAUGUAAACUACAUAAAGAACUUUCCAAAUUUAACAGUAAUAAGUAAAUACAAUUAGAAAAUAAGCAAAAGACAGACAUUUCACUGAAGUAUAGAUAGCAAAUAAGCAAAUGAAACAACAGAGGAUUGAGCAUCA
B19: chr19:53069209:53069329:-|CDS|ENSG00000170949|unk|total|mutant (ssRNA)
RNA: GGGAGUUCUACAGUCCGACGAUCUGGAGAGAAACCUUACAAGUGCAAUGAGUGCGGCAAAGCCUUCCGUGUUCGUUCAAGCCCCGCAAUCCAUCAGACAAUCCACACUGGAGAAAAACCUUACAAAUGUAAUGAAUGUGGCAACAACAGAGGAUUGAGCAUCA
B20: chr2:15946816:15946917:+|3pUTR|ENSG00000134323|unk|FALSE|unique (ssRNA)
RNA: GGGAGUUCUACAGUCCGACGAUCUAUAUGCCUUUUUCCUAGCCUGUUUCUUCCUGUUAAUGUAUUUGUUCAUGUUUGGUGCAUAGAACUGGGUAAAUGCAAAGUUCUGUGUUUAAUUUCUUCAAAAUGUAUAUAUUUAGUGCUCAACAGAGGAUUGAGCAUCA
B21: chr7:152122106:152122213:+|3pUTR|ENSG00000178234|unk|FALSE|unique (ssRNA)
RNA: GGGAGUUCUACAGUCCGACGAUCAGUGGUUUUUAUCUGAUCAGGAACUUGUCAUGAUUUCCUUUCUUAGACUUCAUAGGAGAUAGUGCUUUAAAAAAAAAAAAAACUUCUAUUAUUUGUUUAGUAUGUUGUAAGUAGAUCAUUCAACAGAGGAUUGAGCAUCA
B22: chr19:48382969:48383148:-|3pUTR|ENSG00000105438|msi1_unk|FALSE|overlapping (ssRNA)
RNA: GGGAGUUCUACAGUCCGACGAUCACUUGGGCUGUUUGUAGUUUUUUGCCUUUUAGACAAGAAAAAAAAAUCUUUCCACUCUUUAGUUUUUGAUUCUGAUGACUCGUUUUUCUUCUACUCUGUGGCCCCAAUUUUUAUAAAGUGCAACAGAGGAUUGAGCAUCA

This assay deals with T1, UNK ZnF1-6 (called full-length). In words: nsRBNS (natural sequence RNA bind-n-seq); RBNS binding buffer (assumed for nsRBNS): 25 mM Tris pH 7.5, 150 mM KCl, 3 mM MgCl2, 0.01% Triton X-100, 500 ug/ml BSA, 20 U/ml SUPERase-In, 4 C; UNK is unkempt and MSI1 is Musashi-1; names of the RNAs are library labels; protein concentration not given here; high values mean tight binding.
For B1, the binding signal was 1.86 enrichment R.
B2 yielded a binding signal of 0.542 enrichment R.
For B3 the value was 0.993 enrichment R.
Regarding B4, the binding signal amounted to 1.08 enrichment R.
B5 registered a binding signal of 2.14 enrichment R.
The molecule B6 came in with a binding signal of 0.497 enrichment R.
In the case of B7, the binding signal was 0.353 enrichment R.
Molecule B8 returned a binding signal of 0.685 enrichment R.
B9 yielded a binding signal of 2.61 enrichment R.
For the molecule B10, the binding signal was found to be 4.78 enrichment R.
In turn, B11 displayed a binding signal of 3.07 enrichment R.
B12 displayed a binding signal of 0.447 enrichment R.
The molecule B13 returned a binding signal of 0.897 enrichment R.
On to B14, for which the binding signal is 0.625 enrichment R.
Molecule B15 yielded a binding signal of 2.27 enrichment R.
The value for B16 was 0.739 enrichment R.
In the case of B17, the binding signal is 0.651 enrichment R.
In turn, B18 gave a binding signal of 162 enrichment R.
For B19 the value was 0.549 enrichment R; for B20, 1.93 enrichment R; for B21, 35 enrichment R.
On to B22, for which the binding signal was 5.21 enrichment R.
